Measurements published in PubChem BioAssay AID493208 (National Center for Advancing Translational Sciences (NCATS), 2011).
Among all 44,000 compounds or so, about 340 (0.77%) were called active. Not shown: some 5% with an inconclusive outcome. Calls follow the shape of the dose curve; as a rule, active = well fitted inhibition curve with a large enough effect; inconclusive = small, poorly fitted or top-dose-only effect; inactive = flat fitted curve, though single readings scatter. Some of the results follow.

Experiment: Acumen qHTS Assay for Inhibitors of the mTORC1 Signaling Pathway in MEF (Tsc2-/-, p53-/-) Cells: Sytravon;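 also: plate controls were DMSO for no effect and rapamycin for full effect; nearly all actives have a fitted effect of over 50% in size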
Conditions: phospho-rpS6 immunofluorescence/PI, 24 h; series mostly up to 38.3 µM; activity change, negative = inhibition: at the top concentration
Procedure, shortened: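 Read-out: phospho-S6 Alexa-488 intensity over PI intensity per well, scored as % active cells using thresholds from rapamycin (7.5 nM) and DMSO controls. Tsc2-/-, p53-/- MEFs exposed to compound for 24 h; PI cell count recorded as viability.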

Activity change, negative = inhibition, inactive:
Cc1nn(C(=O)c2ccc(Cl)cc2)c(C)c1Sc1ccc(Cl)cc1 7.03%
CC(=O)c1sc2c(c1C)c(=O)n(-c1ccc(Cl)cc1)c(=O)n2Cc1cc(=O)n2cc(Cl)ccc2n1 -0.635%
CCCSc1nc2sc3c(c2c(=O)n1-c1ccccc1)CCC(C)C3 (stereo unspecified) 10.9%
Cc1cc(NC(=O)CSc2nc(-c3ccccc3F)nc3c2c(=O)n(C)c(=O)n3C)no1 0.201%
Cc1cccc(CSc2ncccc2C(=O)O)c1 11%
CCOc1ccccc1NC(=O)Cn1c(=O)n(C(C)C)c(=O)c2oc3ccccc3c21 -0.504%
COc1ccc(-n2c(=O)c3ccc(C(=O)NCc4ccc(C)cc4)cc3n(Cc3ccc(Cl)cc3)c2=O)cc1 -15.1%
COc1ccc(-n2nc3c(N4CCCC(C(=O)NCCc5ccccc5C)C4)nnc(C)c3c2C)cc1 (stereo unspecified) -5.23%
COCCn1c(C)cc(O)c(C(c2ccc(F)cc2)N2CCC(C)CC2)c1=O (stereo unspecified) 9.15%
Cc1ccc(N(CC(=O)Nc2ccc(C)c(Cl)c2)S(=O)(=O)c2cccs2)cc1 -8.55%
COc1cccc(NC(=O)Cn2c(=O)n(-c3ccccc3)c(=O)c3c2c2cc(OC)ccc2n3C)c1 -6.15%
O=S(=O)(c1ccc(-c2cnc(C3CC3)o2)cc1)N1CCN(c2ccccc2)CC1 0%
CC1=C(C(=O)OC2CCCC2)C(c2ccccc2C(F)(F)F)CC(=O)N1 (stereo unspecified) 1.03%
CCOc1ccccc1NC(=O)c1c(NC(=O)Cc2ccc(OC)cc2)sc2c1CCC2 -1.25%
CCc1cccc(NC(=O)c2ccc3c(c2)c(C)c(C)n3Cc2ccc(F)cc2)c1 -0.426%
Cc1ccc(OCC(=O)Nc2cccc(C(=O)OCc3cc(=O)n4c(C)csc4n3)c2)cc1 1.09%
Cc1ccccc1OCC(=O)OCc1cc(=O)n2nc(-c3cccs3)sc2n1 2.06%
COc1ccccc1CNC(=O)c1nnn(CC(=O)Nc2c(C)cccc2C)c1N 4.52%
Cn1c(C(=O)Nc2ccc(OC(F)(F)F)cc2)cc2c(=O)n3ccccc3nc21 -1.65%
CC(=O)c1ccc(N2CCN(c3ncnc4c3cnn4-c3cc(Cl)ccc3C)CC2)cc1 -0.108%
Cc1ccc(CNC(=O)CN2N=C(c3ccccc3)CCC2=O)cc1 3.42%
Cc1cccc(CSc2nnc3[nH]c(=O)cc(-c4ccccc4)n23)c1 -2.16%
COc1cc(-c2nc3ccc(Cl)cn3c2Nc2ccc3c(c2)OCCO3)ccc1O -22.1%
CCOc1ccc(NC(=O)N2CCC(N3CCCCC3)CC2)cc1 -2.02%
Cc1cc(NC(=O)C2CCCN(S(=O)(=O)c3cccc4nsnc34)C2)ccc1Br (stereo unspecified) -7.94%
O=C(Nc1cc(Cl)cc(Cl)c1)c1ccc(F)c(S(=O)(=O)N2CCN(c3ccccc3F)CC2)c1 6.95%
